target: dopamine D2 receptor (Homo sapiens, UniProt P14416); assay: biochemical; conditions: D2 Ki (nM), Table 1; 0.4 nM [3H]spiperone, CHO-hD2L membranes
UniProt P14416, sequence (P14416 whole entry): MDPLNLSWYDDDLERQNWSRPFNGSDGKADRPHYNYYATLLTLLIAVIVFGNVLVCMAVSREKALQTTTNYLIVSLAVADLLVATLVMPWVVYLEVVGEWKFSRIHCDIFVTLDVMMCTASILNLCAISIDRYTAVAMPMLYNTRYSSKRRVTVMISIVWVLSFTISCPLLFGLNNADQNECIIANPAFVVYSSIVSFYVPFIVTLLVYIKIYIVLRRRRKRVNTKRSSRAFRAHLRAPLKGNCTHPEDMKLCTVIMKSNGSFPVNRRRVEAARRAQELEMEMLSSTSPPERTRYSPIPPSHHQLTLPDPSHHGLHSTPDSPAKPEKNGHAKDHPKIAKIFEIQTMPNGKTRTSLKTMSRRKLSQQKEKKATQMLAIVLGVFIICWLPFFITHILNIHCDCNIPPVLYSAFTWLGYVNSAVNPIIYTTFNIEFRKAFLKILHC

SMILES	Ki
O=C1CCc2c(C(F)(F)F)cc(OCCCCN3CCN(c4cccc5c4CCC5)CC3)nc2N1 [Example E13, 7-[4-(4-Indan-4-yl-piperazin-1-yl)-butoxy]-5-trifluoromethyl-3,4-dihydro-1H-[1,8]naphthyridin-2-one]	5 nM
N#Cc1ccc2cccc(N3CCN(CCCCOc4ccc5c(n4)NC(=O)NC5)CC3)c2c1 [Example F6, 8-{4-[4-(2-Oxo-1,2,3,4-tetrahydro-pyrido[2,3-d]pyrimidin-7-yloxy)-butyl]-piperazin-1-yl}-naphthalene-2-carbonitrile]	0.6 nM
O=C1CCc2ccc(OCCCCN3CCN(c4ccc(F)cc4)CC3)nc2N1 [Example A40, 7-{4-[4-(4-Fluoro-phenyl)-piperazin-1-yl]-butoxy}-3,4-dihydro-1H-[1,8]naphthyridin-2-one]	12 nM
O=c1ccc2ccc(OCCCCN3CCN(c4cccc5cc(F)ccc45)CC3)nc2[nH]1 [Example B48, 7-{4-[4-(6-Fluoro-naphthalen-1-yl)-piperazin-1-yl]-butoxy}-1H-[1,8]naphthyridin-2-one]	1 nM
CC(C)Oc1ccccc1N1CCN(CCCCOc2ncc3ccc(=O)[nH]c3n2)CC1 [Example H2, 2-{4-[4-(2-Isopropoxy-phenyl)-piperazin-1-yl]-butoxy}-8H-pyrido[2,3-d]pyrimidin-7-one]	1 nM
Cc1cc2ccc(CCCCCN3CCN(c4cccc(Cl)c4Cl)CC3)nc2[nH]c1=O [Example D5, 7-{5-[4-(2,3-Dichloro-phenyl)-piperazin-1-yl]-pentyl}-3-methyl-1H-[1,8]naphthyridin-2-one]	1.8 nM
O=C1CCc2c(C(F)(F)F)cc(OCCCCN3CCN(c4cccc5c4CCCC5)CC3)nc2N1 [Example E15, 7-{4-[4-(5,6,7,8-Tetrahydro-naphthalen-1-yl)-piperazin-1-yl]-butoxy}-5-trifluoromethyl-3,4-dihydro-1H-[1,8]naphthyridin-2-one]	39.8 nM
Cc1cc(N2CCN(CCCCOc3ccc4ccc(=O)[nH]c4n3)CC2)c(Cl)cc1F [Example B7, 7-{4-[4-(2-Chloro-4-fluoro-5-methyl-phenyl)-piperazin-1-yl]-butoxy}-1H-[1,8]naphthyridin-2-one]	5 nM
O=C1NCc2ccc(OCCCCN3CCN(c4cccc5c4CCC5)CC3)nc2N1 [Example F3, 7-[4-(4-Indan-4-yl-piperazin-1-yl)-butoxy]-3,4-dihydro-1H-pyrido[2,3-d]pyrimidin-2-one]	0.8 nM
CC(=O)c1ccccc1N1CCN(CCCCOc2ccc3c(n2)NC(=O)CC3)CC1 [Example A34, 7-{4-[4-(2-Acetyl-phenyl)-piperazin-1-yl]-butoxy}-3,4-dihydro-1H-[1,8]naphthyridin-2-one]	0.5 nM
O=C1CCc2cnc(OCCCCN3CCN(c4cccc5c4CCCC5)CC3)cc2N1 [Example I2, 7-{4-[4-(5,6,7,8-Tetrahydro-naphthalen-1-yl)-piperazin-1-yl]-butoxy}-3,4-dihydro-1H-[1,6]naphthyridin-2-one]	9 nM
O=C1CCc2cnc(OCCCCN3CCN(c4cccc5c4CCC5)CC3)cc2N1 [Example I5, 7-[4-(4-Indan-4-yl-piperazin-1-yl)-butoxy]-3,4-dihydro-1H-[1,6]naphthyridin-2-one]	13.9 nM
O=c1ccc2ccc(OCCCCN3CCN(c4cccc5c4CC(F)(F)C5)CC3)nc2[nH]1 [Example B46, 7-{4-[4-(2,2-Difluoro-indan-4-yl)-piperazin-1-yl]-butoxy}-1H-[1,8]naphthyridin-2-one]	1 nM
O=c1ccc2cnc(OCCCCN3CCN(c4cccc5ccc(F)cc45)CC3)cc2[nH]1 [Example I17, 7-{4-[4-(7-Fluoro-naphthalen-1-yl)-piperazin-1-yl]-butoxy}-1H-[1,6]naphthyridin-2-one]	1 nM
Cc1ccc(Cl)cc1N1CCN(CCCCOc2ccc3c(n2)NC(=O)CC3)CC1 [Example A14, 7-{4-[4-(5-Chloro-2-methyl-phenyl)-piperazin-1-yl]-butoxy}-3,4-dihydro-1H-[1,8]naphthyridin-2-one]	5.5 nM
O=C1CCc2ccc(OCCCCN3CCC(c4cccc5ccccc45)CC3)nc2N1 [Example A64, 7-[4-(4-Naphthalen-1-yl-piperidin-1-yl)-butoxy]-3,4-dihydro-1H-[1,8]naphthyridin-2-one]	3.5 nM
O=c1ccc2ccc(OCCCCN3CCN(c4ccc(F)c5ccccc45)CC3)nc2[nH]1 [Example B52, 7-{4-[4-(4-Fluoro-naphthalen-1-yl)-piperazin-1-yl]-butoxy}-1H-[1,8]naphthyridin-2-one]	3.5 nM
CC(=O)c1ccc2cccc(N3CCN(CCCCOc4ccc5ccc(=O)[nH]c5n4)CC3)c2c1 [Example B62, 7-{4-[4-(7-Acetyl-naphthalen-1-yl)-piperazin-1-yl]-butoxy}-1H-[1,8]naphthyridin-2-one]	1 nM
O=C1CCc2ccc(OCCCCN3CCN(c4ccc(F)cc4F)CC3)nc2N1 [Example A41, 7-{4-[4-(2,4-Difluoro-phenyl)-piperazin-1-yl]-butoxy}-3,4-dihydro-1H-[1,8]naphthyridin-2-one]	9.1 nM
CC(C)Oc1ccccc1N1CCN(CCCCOc2ccc3c(n2)NC(=O)CC3(C)C)CC1 [Example D25, 7-{4-[4-(2-Isopropoxy-phenyl)-piperazin-1-yl]-butoxy}-4,4-dimethyl-3,4-dihydro-1H-[1,8]naphthyridin-2-one]	1.6 nM
COc1cccc(N2CCN(CCCCOc3ccc4ccc(=O)[nH]c4n3)CC2)c1Cl [Example B18, 7-{4-[4-(2-Chloro-3-methoxy-phenyl)-piperazin-1-yl]-butoxy}-1H-[1,8]naphthyridin-2-one]	3 nM
O=C1CCc2ccc(OCCCCN3CCN(c4cc(F)cc5c4CCCC5)CC3)nc2N1 [Example A50, 7-{4-[4-(3-Fluoro-5,6,7,8-tetrahydro-naphthalen-1-yl)-piperazin-1-yl]-butoxy}-3,4-dihydro-1H-[1,8]naphthyridin-2-one]	0.8 nM
COc1c(Cl)cccc1N1CCN(CCCCOc2ccc3c(n2)NC(=O)CC3)CC1 [Example A17, 7-{4-[4-(3-Chloro-2-methoxy-phenyl)-piperazin-1-yl]-butoxy}-3,4-dihydro-1H-[1,8]naphthyridin-2-one]	1 nM
CC1(C)CC(=O)Nc2nc(OCCCCN3CCN(c4cccc5ccccc45)CC3)ccc21 [Example D16, 4,4-Dimethyl-7-[4-(4-naphthalen-1-yl-piperazin-1-yl)-butoxy]-3,4-dihydro-1H-[1,8]naphthyridin-2-one]	3 nM
O=c1[nH]c2nc(OCCCCN3CCN(c4cccc5ccccc45)CC3)ccc2cc1CC(F)(F)F [Example D11, 7-[4-(4-Naphthalen-1-yl-piperazin-1-yl)-butoxy]-3-(2,2,2-trifluoro-ethyl)-1H-[1,8]naphthyridin-2-one]	1.4 nM
COc1cccc(N2CCN(CCCCOc3ccc4c(n3)NC(=O)CO4)CC2)n1 [Example G6, 6-{4-[4-(6-Methoxy-pyridin-2-yl)-piperazin-1-yl]-butoxy}-4H-pyrido[3,2-b][1,4]oxazin-3-one]	66.7 nM
O=C1CCc2cc(F)c(OCCCCN3CCN(c4cccc5ccccc45)CC3)nc2N1 [Example E4, 6-Fluoro-7-[4-(4-naphthalen-1-yl-piperazin-1-yl)-butoxy]-3,4-dihydro-1H-[1,8]naphthyridin-2-one]	2.2 nM
O=c1ccc2cnc(OCCCCN3CCN(c4cccc5c4CCCC5)CC3)cc2[nH]1 [Example I14, 7-{4-[4-(5,6,7,8-Tetrahydro-naphthalen-1-yl)-piperazin-1-yl]-butoxy}-1H-[1,6]naphthyridin-2-one]	3.5 nM

same assay, conditions: D2 Ki (nM), Table 2; 0.4 nM [3H]spiperone, CHO-hD2L membranes

SMILES	Ki
O=C1CCc2ccc(OCCCCN3CCN(c4cccc5ccncc45)CC3)nc2N1 [Example A36′, 7-[4-(4-Isoquinolin-8-yl-piperazin-1-yl)-butoxy]-3,4-dihydro-1H-[1,8]naphthyridin-2-one]	0.6 nM
O=c1ccc2ccc(OCCCCN3CCN(c4cccc5c4OC(F)(F)O5)CC3)nc2[nH]1 [Example B13′, 7-{4-[4-(2,2-Difluoro-benzo[1,3]dioxol-4-yl)-piperazin-1-yl]-butoxy}-1H-[1,8]naphthyridin-2-one]	2 nM
O=c1ccc2ccc(OCCCCN3CCN(c4cccc5nsnc45)CC3)nc2[nH]1 [Example B40′, 7-[4-(4-Benzo[1,2,5]thiadiazol-4-yl-piperazin-1-yl)-butoxy]-1H-[1,8]naphthyridin-2-one]	3.9 nM
O=c1ccc2ccc(OCCCCN3CCN(c4cccc5c4OCC5)CC3)nc2[nH]1 [Example B8′, 7-{4-[4-(2,3-Dihydro-benzofuran-7-yl)-piperazin-1-yl]-butoxy}-1H-[1,8]naphthyridin-2-one]	1 nM
CCN1CCCc2c1cccc2N1CCN(CCCCOc2ccc3ccc(=O)[nH]c3n2)CC1 [Example B29′, 7-{4-[4-(1-Ethyl-1,2,3,4-tetrahydro-quinolin-5-yl)-piperazin-1-yl]-butoxy}-1H-[1,8]naphthyridin-2-one]	31.9 nM
CC1(C)C=Cc2cccc(N3CCN(CCCCOc4ccc5ccc(=O)[nH]c5n4)CC3)c2O1 [Example B2′, 7-{4-[4-(2,2-Dimethyl-2H-chromen-8-yl)-piperazin-1-yl]-butoxy}-1H-[1,8]naphthyridin-2-one]	1 nM
O=C1CCc2ccc(OCCCCN3CCN(c4cccc5c4OC4(C=C5)CCCC4)CC3)nc2N1 [Example A7′, 7-{4-[4-(Spiro[chromene-2,1′-cyclopentan]-8-yl)-piperazin-1-yl]-butoxy}-3,4-dihydro-1H-[1,8]naphthyridin-2-one]	4 nM
Cn1ccc2c(N3CCN(CCCCOc4ccc5c(n4)NC(=O)CC5)CC3)cccc21 [Example A26′, 7-{4-[4-(1-Methyl-1H-indol-4-yl)-piperazin-1-yl]-butoxy}-3,4-dihydro-1H-[1,8]naphthyridin-2-one]	12.5 nM
O=C1CCc2ccc(OCCCCN3CCN(c4cccc5ccc(=O)[nH]c45)CC3)nc2N1 [Example A47′, 7-{4-[4-(2-Oxo-1,2-dihydro-quinolin-8-yl)-piperazin-1-yl]-butoxy}-3,4-dihydro-1H-[1,8]naphthyridin-2-one]	15.9 nM
CNc1ccc2cccc(N3CCN(CCCCOc4ccc5ccc(=O)[nH]c5n4)CC3)c2n1 [Example B33′, 7-{4-[4-(2-Methylamino-quinolin-8-yl)-piperazin-1-yl]-butoxy}-1H-[1,8]naphthyridin-2-one]	4.2 nM

Source: patent US7160888B2, “[1,8]naphthyridin-2-ones and related compounds for the treatment of schizophrenia” (Warner Lambert Company LLC, priority 2003, dated 2007)
